Measurements taken from PubChem BioAssay (NCATS).
Values joined by “and” are separate entries in the source; they are usually repeats but may differ in a detail not shown here. Identical values can stand only once. The inconclusive results got no clear call from the source; some entries with a clear call stand among them for comparison. Where the call is inconclusive, the potency comes from a doubtful curve fit. Active and inactive are the calls of the source. Calls follow the shape of the dose curve; as a rule, active = well fitted cell-killing curve with a large enough effect; inconclusive = small, poorly fitted or top-dose-only effect; inactive = flat fitted curve, though single readings scatter.
Tags tell the direction and shape of the fitted curve.

Experiment: Cellular viability qHTS for adrenocortical cancer (ACC) cell line NCI-H295R (AID 1963990); also: nearly all actives have a fitted effect of over 60% in size
Conditions: CellTiter-Glo ATP luminescence, 48 h; activity change, negative = viability loss: at 46.1 µM (top of the series)
Excerpt: PI: Naris Nilubol, MD Surgical Oncology Program, National Cancer Institute (NCI) National Institute of Health (NIH), Bethesda, Maryland Adrenocortical cancer (ACC) is a rare malignancy with poor survival outcomes and few treatment options. Currently, mitotane is the only FDA-approved therapy for ACC. Although adjuvant radiation therapy is rarely utilized, it has the potential to improve survival in select cases. Through a quantitative high-throughput drug screen (qHTS), we identified auranofin (AF), a thioredoxin reductase (TXNRD) inhibitor, as a promising candidate drug. This study aims to evaluate whether AF can enhance the efficacy of radiation therapy in the treatment of ACC. Two human ACC cell lines, SW-13 and NCI-H295R, were screened using the National Center for Advancing Translational Sciences (NCATS) Pharmaceutical Collection (NPC) and the Mechanism Interrogation PlatE (MIPE) library (~4,991 compounds). CellTiter-Glo (Cat # G7570, Promega, Madison, WI) was utilized to measure cell viability. Described herein are the results of the corresponding viability assay.
PROTOCOL TABLE (as described by Inglese J, Shamu CE and Guy RK. 2007) SEQUENCE No. (e.g., 1, 2, 3, etc.); […] (e.g., Cells, Incubation, Reagent, etc.); VALUE; DESCRIPTION. 1; Cells; 5 uL; white, solid-bottom, 1536-well tissue-culture treated plates. 2; Time; overnight culture at 37C with 5% CO2. 3; Compounds and control; 23 nL; Kalypsis pin tool (Wako USA) equipped with a 1536-well pin head to transfer to the assay plates. 4; Time; 48 hours; 37C with 5% CO2. 5; Reagent; 4 uL; CellTiter-Glo luminescent substrate mix. 6; Time; 20 min at room temperature. 7; Detection; Luminescence; ViewLux plate reader NOTES (numbers refer to Sequence numbers above) 1. NCI-H295R cells were harvested from a T175 flask and resuspended in ITS-supplemented DMEM serum-free medium at a concentration of 300 000 cells/mL. Then 5 uL of resuspended cells were dispensed into each well of white, solid-bottom, 1536-well tissue-culture-treated plates using a multidrop combi dispenser. The plates were covered with stainless steel gasket lids. 2-3. The plates were cultured overnight at 37C with 5% CO2. Twenty-three nL of compounds (eight selected concentrations from the NPC / MIPE) or positive control (10 mM stock of bortezomib) in DMSO was transferred to each well of the assay plate using a pin tool (Kalypsys, San Diego, CA, USA). The final concentration of the compounds in the 5 uL assay volume ranged from 0.5 nM to 46 uM. 4-6. After 48 hours of incubation at 37C and 5% CO2, 4 uL of CellTilter-Glo luminescent substrate mix (Promega, Madison, WI, USA) was added to each well. Then the plates were incubated for 20 minutes at room temperature. 7. After incubation, luminescence was measured using a ViewLux plate reader (PerkinElmer, Waltham, MA, USA) with a clear filter was used to measure the number of metabolically competent cells. To determine compound activity in the qHTS assay, the titration-response data for each sample was plotted and modeled by a four-parameter logistic fit yielding IC50 and efficacy (maximal response) values. Raw plate reads for each titration point were normalized relative to positive control ([…], 100% inhibition) and DMSO-only wells (basal, 0%). REFERENCES: Inglese J, Shamu CE and Guy RK, Reporting data from high throughput screening of small molecule libraries, Nature Chemical Biology, 2007, 3(8): 438-441. doi.org/10.1038/nchembio0807-438.
For `Nc1nc(-c2nn(Cc3ccccc3F)c3ncccc23)ncc1C1CC1`, the Potency was inconclusive: 11.2 µM [cytotoxic, partial curve, poor fit].
With `O=C(CCC1CCN(Cc2ccccc2)CC1)c1ccc2c(c1)NCCCC2` the Potency was inconclusive: 23.1 µM [cytotoxic, single point].
For `Cc1c(F)cc(C(=O)NC2CC2)cc1-c1c(F)cn2c(C(C)(C)C)nnc2c1F`, the Potency was inconclusive: 25.1 µM [cytotoxic, partial curve, poor fit].
In the case of `CC(N)C12CC3CC(CC(C3)C1)C2` (stereo not given), the Potency is reported as “inactive”.
For `CS(=O)(=O)c1ccc([C@@H](CC2CCCC2)C(=O)Nc2nccs2)cc1`, the Potency was inconclusive: 35.5 µM [cytotoxic, single point].
In the case of `C[C@H]1C[C@@H](n2c(Nc3ccc(OC(F)(F)F)cc3)nc3cc(CCC(=O)O)ccc32)CC(C)(C)C1`, the Potency is reported as inconclusive: 7.94 µM [cytotoxic, full curve, poor fit].
With `Nc1ncnc2nc[nH]c12` the “activity change, negative = viability loss” value was inactive: 8.19%.
For `CC(=O)c1ccc(S(=O)(=O)NC(=O)NC2CCCCC2)cc1`, the “activity change, negative = viability loss” value was inactive: -10.5%.
With `O=c1[nH]cc(F)c(=O)[nH]1` the Potency was inconclusive: 23.1 µM [cytotoxic, single point].
For `CC(=O)N1CCN(CCOc2ccc(C3CCN(C4=Nn5c(nnc5C(F)(F)F)CC4)CC3)cc2)CC1`, the Potency was inconclusive: 14.1 µM [cytotoxic, partial curve, poor fit].
In the case of `C/C(=C1\CCOC(=O)S1)N(C=O)Cc1cnc(C)nc1N`, the “activity change, negative = viability loss” value is reported as inactive: -28.3%.
In the case of `CCN1CCc2nc(N)oc2CC1`, the Potency is reported as inconclusive: 2.06 µM [cytotoxic, partial curve, poor fit].
For `CCC(=O)Nc1ccc(O)cc1`, the “activity change, negative = viability loss” value was inactive: 0.596%.
With `c1cc(-c2cnn3cc(-c4ccc(OCCN5CCCCC5)cc4)cnc23)ccn1` the Potency was active: 12.6 µM.
With `O=C1[C@H]2CCCC[C@H]2C(=O)N1CCCCN1CCN(c2nsc3ccccc23)CC1` the Potency was inconclusive: 29.1 µM [cytotoxic, single point].
With `CN1CCN(c2cc(C(=O)Nc3ccc4c(c3)-c3c(c(C(N)=O)nn3-c3ccc(F)cc3)CC4)c(Cl)cn2)CC1` the Potency was active: 25.1 µM.
With `COc1ccnc2[nH]cc(C(=O)C(=O)N3CCN(C(=O)c4ccccc4)C[C@H]3C)c12` the “activity change, negative = viability loss” value was inactive: -0.186%.
In the case of `CCN(CC)C(=S)SSC(=S)N(CC)CC`, the Potency is reported as active: 44.7 µM and inconclusive: 3.66 µM [cytotoxic, single point] and inconclusive: 15.8 µM [cytotoxic, partial curve].
With `CC[C@H](C)[C@@H]([C@@H](CC(=O)N1CCC[C@H]1[C@H](OC)[C@@H](C)C(=O)N[C@@H](Cc1ccccc1)c1nccs1)OC)N(C)C(=O)[C@@H](NC(=O)[C@H](C(C)C)N(C)C)C(C)C` the activity change, negative = viability loss was inconclusive: -98.9%.
In the case of `CCCCC1C(=O)N(c2ccccc2)N(c2ccccc2)C1=O`, the Potency is reported as inconclusive: 18.4 µM [cytotoxic, partial curve].
With `CSCC[C@H](NC(=O)[C@H](Cc1c[nH]c2ccccc12)NC(=O)CCNC(=O)OC(C)(C)C)C(=O)N[C@@H](CC(=O)O)C(=O)N[C@@H](Cc1ccccc1)C(N)=O` the Potency was inconclusive: 2.59 µM [cytotoxic, full curve].
For `CC1(C)CC[C@]2(C(=O)O)CC[C@]3(C)C(=CC[C@@H]4[C@@]5(C)C[C@@H](O)[C@H](O)C(C)(C)[C@@H]5CC[C@]43C)[C@@H]2C1`, the “activity change, negative = viability loss” value was inactive: -24.1%.
In the case of `N[C@@H](CCC(=O)N[C@@H](CS)C(=O)NCC(=O)O)C(=O)O`, the “activity change, negative = viability loss” value is reported as inactive: -5.3% [at 20 µM].
In the case of `Cc1cccc(C)c1OCC(=O)N[C@@H](Cc1ccccc1)[C@@H](O)C[C@H](Cc1ccccc1)NC(=O)[C@H](C(C)C)N1CCCNC1=O`, the Potency is reported as active: 16.4 µM.
With `CCCC(C(=O)OCCN(CC)CC)(c1ccccc1)c1ccccc1` the Potency was inconclusive: 8.2 µM [cytotoxic, partial curve, poor fit].
For `CN(CCCN1c2ccccc2CCc2ccccc21)CC(=O)c1ccc(Cl)cc1`, the Potency was inconclusive: 29.1 µM [cytotoxic, single point].
For `CC1CCCCN1CCCOC(=O)c1ccc(OC2CCCCC2)cc1` (stereo not given), the Potency was inconclusive: 29.1 µM [cytotoxic, single point].
For `CC(C)NCC(O)COc1ccc(CCOCC2CC2)cc1` (stereo not given), the Potency was “inactive”.
For `Clc1ccc(Cn2c(CN3CCCC3)nc3ccccc32)cc1`, the Potency was inconclusive: 20.6 µM [cytotoxic, single point] and inconclusive: 35.5 µM [cytotoxic, single point].
For `COc1cc2nc(N3CCCN(C)CC3)nc(NC3CCN(Cc4ccccc4)CC3)c2cc1OC`, the Potency was active: 8.91 µM.
For `Cc1cc(OCCOCC[N+](C)(C)Cc2ccccc2)ccc1C(C)(C)CC(C)(C)C`, the Potency was inconclusive: 29.1 µM [cytotoxic, single point].
With `Cc1cc(CS(=O)(=O)c2ccccc2)cc(OCc2ccc(CN3CCC[C@@H]3CO)cc2)c1` the Potency was inconclusive: 28.2 µM [cytotoxic, single point].
With `Cc1ccc(C(=O)c2cc(O)c(O)c([N+](=O)[O-])c2)cc1` the Potency was active: 23.1 µM and active: 31.6 µM.
With `CC(C)NCCCC1(C(N)=O)c2ccccc2-c2ccccc21` the “activity change, negative = viability loss” value was inactive: -3.01%.
In the case of `O=C(O)c1ccccc1S`, the “activity change, negative = viability loss” value is reported as inactive: -6.8%.
In the case of `Cc1nn(C)c2c1C(c1ccc(C(F)(F)F)cc1)C(C#N)=C(N)O2` (stereo not given), the Potency is reported as inconclusive: 0.112 µM [cytotoxic, full curve, poor fit].
With `CC1(C)Cc2c(-c3ccccc3)c(-c3ccc(Cl)cc3)c(CC(=O)O)n2C1` the Potency was inconclusive: 39.8 µM [cytotoxic, single point].
In the case of `CC(C)OC(=O)c1cc(C(=O)OC(C)C)cc([N+](=O)[O-])c1`, the Potency is reported as inconclusive: 15.8 µM [cytotoxic, partial curve].
With `CCC(C(=O)NC(=O)NC(C)=O)c1ccccc1` (stereo not given) the “activity change, negative = viability loss” value was inactive: 22.3%.
With `CCC(=O)Nc1cccc(Oc2nc(Nc3ccc(N4CCN(C)CC4)cc3OC)ncc2Cl)c1` the Potency was inconclusive: 5.62 µM [cytotoxic, full curve].
